25 compounds from the antibiotic and cytotoxicity screens of Wong et al. (2023) can be followed below.

Experiment [1] deals with HSkMC (human skeletal muscle cells). Description: cytotoxicity call (relative viability < 0.9). The following applies: 10 µM.
The test system of experiment [2] is HepG2. Description: cytotoxicity call (relative viability < 0.9). The following applies: 10 µM.
Experiment [3] has as its system S. aureus RN4220. Description: growth inhibition call (relative growth <= 0.2). As to conditions: 50 µM.

The other results are listed elsewhere or left out.

Take `C[C@H](CO)N1C[C@H](C)[C@H](CN(C)C(=O)c2ccc(N3CCN(C)CC3)cc2)OCc2cn(nn2)CCCC1=O`: the cytotoxicity call in experiment [1] and in experiment [2] was “inactive” throughout. In experiment [3], the growth inhibition call is “inactive”.
Consider `COC(=O)C(CC#Cc1ccc2c(c1)[C@]1(C(=O)N2)[C@H](c2ccc(O)cc2)N2[C@H](c3ccccc3)[C@H](c3ccccc3)OC(=O)[C@H]2[C@@H]1C(=O)N1CCCCCCC1)C(=O)OC`, for which the cytotoxicity call in experiment [1] and in experiment [2] was “inactive” in each case. The growth inhibition call in experiment [3] was “inactive”.
In the case of `Cn1nnnc1SCC(=O)NC(C)(C)C`, the cytotoxicity call in experiment [1] and in experiment [2] was “inactive” throughout. Besides, the growth inhibition call in experiment [3] is “inactive”.
Turning to `CC(C)C[C@@H]1NC(=O)[C@H]2C[C@@H](C(=O)NCCCCCC[N+](C)(C)C)[C@@H](c3cccc(OCCO)c3)N2C1=O`, the cytotoxicity call in experiment [1] and in experiment [2] was “inactive” in each case. Besides, the growth inhibition call in experiment [3] was “inactive”.
As to `Cc1ccc(S(=O)(=O)N(C)C[C@@H]2Oc3ccc(NC(=O)NC(C)C)cc3C(=O)N([C@H](C)CO)C[C@H]2C)cc1`, the cytotoxicity call in experiment [1] and in experiment [2] was “inactive” in each case. Besides, the growth inhibition call in experiment [3] is “inactive”.
Consider `c1ccc(-c2cccs2)cc1`, for which the cytotoxicity call in experiment [1] and in experiment [2] was “inactive” in each case. The growth inhibition call in experiment [3] was “inactive”.
As to `C[C@H]1CN([C@@H](C)CO)C(=O)c2cccc(NC(=O)C3CCOCC3)c2O[C@@H]1CN(C)Cc1ccc(-c2ccccc2)cc1`, the cytotoxicity call in experiment [1] and in experiment [2] was “inactive” each time. Besides, the growth inhibition call in experiment [3] was “inactive”.
As for `COc1ccccc1NC(=O)N(C)C[C@H]1Oc2ncc(C#CCN(C)C)cc2C(=O)N([C@H](C)CO)C[C@@H]1C`, the cytotoxicity call in experiment [1] and in experiment [2] was “inactive” throughout. Moreover, the growth inhibition call in experiment [3] is “inactive”.
On to `C[C@@H]1CN([C@H](C)CO)C(=O)Cc2cc(NC(=O)Nc3ccc4c(c3)OCO4)ccc2O[C@H]1CN(C)C(=O)Nc1ccc(C(F)(F)F)cc1`, for which the cytotoxicity call in experiment [1] and in experiment [2] was “inactive” throughout. For the same compound, the growth inhibition call in experiment [3] is “inactive”.
As for `COc1ccc(NC(=O)Nc2ccc3c(c2)C(=O)N([C@@H](C)CO)C[C@@H](C)[C@H](CN(C)C(=O)CCC(F)(F)F)OCCCC[C@@H](C)O3)cc1`, the cytotoxicity call in experiment [1] and in experiment [2] was “inactive” throughout. Besides, the growth inhibition call in experiment [3] is “inactive”.
With `CN(C)S(=O)(=O)N1Cc2nnn(C)c2[C@H](COCC2CC2)C1`, the cytotoxicity call in experiment [1] and in experiment [2] was “inactive” throughout. Moreover, the growth inhibition call in experiment [3] was “inactive”.
For the compound `Cn1cnc(S(=O)(=O)N2C[C@@H](O)COC[C@@H]3O[C@H](CC(=O)NCc4ccc(F)cc4)CC[C@H]32)c1`, the cytotoxicity call in experiment [1] and in experiment [2] was “inactive” in each case. Moreover, the growth inhibition call in experiment [3] is “inactive”.
On to `CC(=O)O[C@@H]1[C@H]2OC(C)(C)O[C@H]2O[C@@H]1[C@@H](O)CO`, for which the cytotoxicity call in experiment [1] and in experiment [2] was “inactive” throughout. The growth inhibition call in experiment [3] was “inactive”.
In the case of `C[C@H](CO)N1C[C@H](C)[C@H](CN(C)C(=O)Nc2ccc3c(c2)OCO3)Oc2c(NC(=O)C3CC3)cccc2C1=O`, the cytotoxicity call in experiment [1] and in experiment [2] was “inactive” each time. For the same compound, in experiment [3], the growth inhibition call is “inactive”.
Regarding `CC(C)C(=O)[C@@H]1C(=O)O[C@@H](c2ccoc2)[C@]2(C)[C@H](O)[C@@H](O)[C@@]34O[C@]5(C)O[C@]3([C@H]12)[C@H](O)[C@@]1(O)[C@H](O)[C@]2(C)C[C@]1(O5)[C@@]4(C)[C@H]2CC(=O)O`, the cytotoxicity call in experiment [1] was “inactive”. Moreover, the cytotoxicity call in experiment [2] is “active”. Also, in experiment [3], the growth inhibition call was “inactive”.
Take `O=C(C[C@@H]1CC[C@@H]2[C@H](COC[C@H](O)CN2Cc2ccccc2F)O1)N[C@@H]1CCN(Cc2ccccc2)C1`: the cytotoxicity call in experiment [1] and in experiment [2] was “inactive” throughout. Besides, in experiment [3], the growth inhibition call is “inactive”.
Turning to `COc1ccc(NC(=O)N(C)C[C@@H]2Oc3ccc(NC(=O)CCCN(C)C)cc3C(=O)N([C@H](C)CO)C[C@@H]2C)cc1`, the cytotoxicity call in experiment [1] and in experiment [2] was “inactive” in each case. For the same compound, the growth inhibition call in experiment [3] was “inactive”.
In the case of `C[C@H]1CN([C@@H](C)CO)C(=O)c2cc(-c3ccc(C(=O)N(C)C)cc3)cnc2O[C@@H]1CN(C)C(=O)CN(C)C`, the cytotoxicity call in experiment [1] and in experiment [2] was “inactive” throughout. The growth inhibition call in experiment [3] is “inactive”.
As to `C[C@@H]1CN([C@@H](C)CO)C(=O)c2cc(NC(=O)c3ccncc3)ccc2O[C@H]1CN(C)S(=O)(=O)c1ccccc1`, the cytotoxicity call in experiment [1] and in experiment [2] was “inactive” in each case. Further, the growth inhibition call in experiment [3] was “inactive”.
For the compound `COc1ccc(S(=O)(=O)N(C)C[C@@H]2Oc3c(NC(=O)c4cc(C)nn4C)cccc3C(=O)N([C@@H](C)CO)C[C@@H]2C)cc1`, the cytotoxicity call in experiment [1] and in experiment [2] was “inactive” throughout. In experiment [3], the growth inhibition call is “inactive”.
On to `COc1ccc(NC(=O)N(C)C[C@@H]2Oc3ccc(NS(C)(=O)=O)cc3CC(=O)N([C@H](C)CO)C[C@@H]2C)cc1`, for which the cytotoxicity call in experiment [1] and in experiment [2] was “inactive” each time. In experiment [3], the growth inhibition call was “inactive”.
Regarding `C[C@H](CO)N1C[C@H](C)[C@@H](CN(C)C)OCCCC[C@H](C)Oc2ccc(NC(=O)CCCN(C)C)cc2C1=O`, the cytotoxicity call in experiment [1] and in experiment [2] was “inactive” in each case. Also, the growth inhibition call in experiment [3] is “inactive”.
Regarding `C[C@@H]1CN([C@H](C)CO)S(=O)(=O)c2ccc(C#Cc3ccccc3F)cc2O[C@H]1CN(C)C(=O)Cc1ccncc1`, the cytotoxicity call in experiment [1] and in experiment [2] was “inactive” throughout. Further, the growth inhibition call in experiment [3] was “inactive”.
`CC(=O)N(C)C[C@@H]1Oc2ncc(C#C[C@H](C)O)cc2C(=O)N([C@@H](C)CO)C[C@@H]1C`: the cytotoxicity call in experiment [1] and in experiment [2] was “inactive” throughout. Moreover, the growth inhibition call in experiment [3] was “inactive”.
On to `COc1ccc(S(=O)(=O)N(C)C[C@@H]2Oc3c(NC(=O)c4cnccn4)cccc3C(=O)N([C@H](C)CO)C[C@H]2C)cc1`, for which the cytotoxicity call in experiment [1] and in experiment [2] was “inactive” in each case. In addition, in experiment [3], the growth inhibition call was “inactive”.
